Results published in the RNAGym collection of RNA variant scans (doi:10.7554/elife.90254).
The source gives no read counts; variants with many changes may rest on few reads.

B1: LINE1-mini (parent)
chain: GGCAGAGCUCAACACAGCGUGGCAAAGUGGCUGUGGCUAGACUGCC

Variants of: B1
Assay: self-cleavage, relative activity (ratio to wild type); higher = more cleavage; in vitro, sequencing; the parent is a self-cleaving ribozyme

Q: With A11U C15G C31G as the variant, how does the self-cleavage read?
A: 0.01

Q: Which self-cleavage does the source give for A4U G27C U28A here?
A: 0.15

Q: For G5U A25C U43G, which self-cleavage is on record?
A: 0.05

Q: For C8U A11U C15U G21U G30U, which self-cleavage is on record?
A: 0.05

Q: For C15U U20C A25C, which self-cleavage is on record?
A: 0.25

Q: For U9C A14G A16G U20G U38G, which self-cleavage is on record?
A: 0.01

Q: For A25U G27C G35C C37G C42A, which self-cleavage is on record?
A: 0.04

Q: With A4U G21A G29A as the variant, how does the self-cleavage read?
A: 2.71

Q: Which self-cleavage does the source give for G5C C10A G22U G35C here?
A: 0.04

Q: With C8A G19A G29U C46A as the variant, how does the self-cleavage read?
A: 0.09

Q: For A4C C15G C18G, which self-cleavage is on record?
A: 0.03

Q: Which self-cleavage does the source give for A14G C18U G22A C37U here?
A: 0.07

Q: With G1C C10A G40U as the variant, how does the self-cleavage read?
A: 0.02

Q: With C18A G29A G35U U38G as the variant, how does the self-cleavage read?
A: 0.01

Q: With G7A A26C C31A C45G as the variant, how does the self-cleavage read?
A: 0.03

Q: Which self-cleavage does the source give for C10A G33A U43C here?
A: 0.02

Q: Which self-cleavage does the source give for C8A G40U C42A C45G here?
A: 0.28

Q: With G7A A12C G17A U32G as the variant, how does the self-cleavage read?
A: 0.04

Q: With C10G G27U G35A G44A as the variant, how does the self-cleavage read?
A: 0.04

Q: Which self-cleavage does the source give for G1A C31A U32G G35A here?
A: 0.06

Q: For U9G G22U G29A, which self-cleavage is on record?
A: 0.05

Q: For A12U C18A C31G G40U, which self-cleavage is on record?
A: 0.02

Q: Which self-cleavage does the source give for A16U G17A A25U U38C here?
A: 0.07

Q: Which self-cleavage does the source give for C3G C8G C23A U38A here?
A: 0.04

Q: With G1U G27U G33A C45U as the variant, how does the self-cleavage read?
A: 0.02

Q: Which self-cleavage does the source give for G1U C8U G35U here?
A: 0.1

Q: For G19C U28A G33A, which self-cleavage is on record?
A: 0.38

Q: With A16C U20C A39G as the variant, how does the self-cleavage read?
A: 0.03

Q: Which self-cleavage does the source give for G7C G21A A39U here?
A: 0.11

Q: For G2C A6U G7A C8A U34C, which self-cleavage is on record?
A: 0.8

Q: With C18G A25U G35U U38G as the variant, how does the self-cleavage read?
A: 0.05

Q: With A11G G27A C45A as the variant, how does the self-cleavage read?
A: 0.06

Q: With C3U C10A G17A C37A as the variant, how does the self-cleavage read?
A: 0.01

Q: For G2C C18A U32A G36U A41G, which self-cleavage is on record?
A: 0.01

Q: With C3G A26U U28G A41C as the variant, how does the self-cleavage read?
A: 0.07

Q: With A25U A41G C46G as the variant, how does the self-cleavage read?
A: 0.16

Q: Which self-cleavage does the source give for G17A C18A A26G G35U G36C here?
A: 0

Q: Which self-cleavage does the source give for G2U C18U U38A C42A here?
A: 0

Q: With A11U A25C G29A U38C as the variant, how does the self-cleavage read?
A: 0.06

Q: For C8G U34C G36A C45U, which self-cleavage is on record?
A: 0.04

Q: Which self-cleavage does the source give for A4G G5U A6G A12C here?
A: 0.05

Q: Which self-cleavage does the source give for A11G G22A C23A U28C G40C G44A here?
A: 0.01

Q: For G5U C10A C18U G22C C46A, which self-cleavage is on record?
A: 0.01

Q: Which self-cleavage does the source give for C15G G22U C37A U43A here?
A: 0.02

Q: Which self-cleavage does the source give for G17U G21A A26G G30U U43A here?
A: 0.08

Q: Which self-cleavage does the source give for A6G G7U G36C here?
A: 0.03

Q: Which self-cleavage does the source give for G5A A6C A14U G21C A25U here?
A: 0.12

Q: Which self-cleavage does the source give for G1A A6C G17C G21U G36C here?
A: 0.05

Q: For A25C A26G C31U U34A, which self-cleavage is on record?
A: 0.01

Q: With C10A C18U A24C as the variant, how does the self-cleavage read?
A: 0.03

Q: For G1U C18U G35A A39G, which self-cleavage is on record?
A: 0

Q: Which self-cleavage does the source give for G2U A6G U32C U43C here?
A: 0.03

Q: With A4C A6G U32G U43A as the variant, how does the self-cleavage read?
A: 0.19

Q: Which self-cleavage does the source give for G2C G17C G19U U32G here?
A: 0.08

Q: For G27U U28G U32G C42A, which self-cleavage is on record?
A: 0.01

Q: Which self-cleavage does the source give for A4U C8A G29U C37A here?
A: 0.82

Q: With C8U U9C G17U G35U as the variant, how does the self-cleavage read?
A: 0.01

Q: For A12U A14U C15U, which self-cleavage is on record?
A: 0.02

Q: Which self-cleavage does the source give for A12G A39G G40U here?
A: 0

Q: For C13G C18U U28C G36A C46A, which self-cleavage is on record?
A: 0.02

Q: With U9A G30U U43C C45A as the variant, how does the self-cleavage read?
A: 0.11

Q: Which self-cleavage does the source give for G7C G19A G29A C31G here?
A: 0.04

Q: Which self-cleavage does the source give for G7A A26C A41U G44A here?
A: 0.38

Q: Which self-cleavage does the source give for C10G C37A A39U C45G here?
A: 0

Q: Which self-cleavage does the source give for G29U C37A U43C here?
A: 0.02

Q: For G2C G5C G19U G21A, which self-cleavage is on record?
A: 0.03

Q: Which self-cleavage does the source give for A4C A12G U20C C23U C31U A41C here?
A: 0.05

Q: For C10G U20G G36C, which self-cleavage is on record?
A: 0

Q: For C3A A16C U28G, which self-cleavage is on record?
A: 0.19

Q: For G1C C23A G30U C37G G40C A41U, which self-cleavage is on record?
A: 0

Q: With C15A G17C G35U C45G as the variant, how does the self-cleavage read?
A: 0.05

Q: With A16G U32A U43G G44U as the variant, how does the self-cleavage read?
A: 0.02

Q: With A12G G19U G29U G36U as the variant, how does the self-cleavage read?
A: 0.06

Q: Which self-cleavage does the source give for G1U A14U G40U here?
A: 0.01

Q: Which self-cleavage does the source give for C10A C23U A39U C45A here?
A: 0.06

Q: For A14G G19U G35U, which self-cleavage is on record?
A: 0.37

Q: With A12U U20A G44U as the variant, how does the self-cleavage read?
A: 0.09

Q: With G7U C23U C37G as the variant, how does the self-cleavage read?
A: 0.11

Q: For A12C C23A A25U G27U G29U C37G, which self-cleavage is on record?
A: 0

Q: Which self-cleavage does the source give for C13A C18A G30C here?
A: 0.02

Q: With C3U A24U G30C as the variant, how does the self-cleavage read?
A: 0.18

Q: Which self-cleavage does the source give for G5A C10G G22C G33U here?
A: 0.03

Q: Which self-cleavage does the source give for G2A C42G C45U here?
A: 0.15

Q: With C8A G17A U38A as the variant, how does the self-cleavage read?
A: 0.47
